Measured values as given in the supplement of paper PMC10441789.
Some of the results follow. Antibody binding of pooled human sera (four to six donors per pool; dilution not stated) to peptides of the Trypanosoma cruzi antigen TSSA on microarrays. Quantile-normalised fluorescence in arbitrary units, mean of duplicate arrays; higher = more binding. No active / inactive call. The uninfected pools are read here as the healthy donors of the same country. The strongest signals lie near the top of the scale (about 60,000).

Tests used:
Assay in all cases: antibody binding signal (normalised fluorescence) (arbitrary fluorescence units); higher = stronger serum antibody binding to peptide
[1] = system: pooled sera of chronic Chagas disease patients, Argentina
Description: (§1)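 Microarray of 15-residue peptides over residues 30-55 of Trypanosoma cruzi TSSAII, each with 1 to 10 substitutions at naturally variable positions, probed with one serum pool per country.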

[2] = system: pooled sera of chronic Chagas disease patients, Bolivia
Description: as §1

[3] = system: pooled sera of chronic Chagas disease patients, Brazil
Description: as §1

[4] = system: pooled sera of chronic Chagas disease patients, Colombia
Description: as §1

[5] = system: pooled sera of chronic Chagas disease patients, Mexico
Description: as §1

[6] = system: pooled sera of chronic Chagas disease patients, USA
Description: as §1

[7] = system: pooled sera of uninfected people, Argentina
Description: as §1

[8] = system: pooled sera of uninfected people, Bolivia
Description: as §1

[9] = system: pooled sera of uninfected people, Brazil
Description: as §1

[10] = system: pooled sera of uninfected people, Colombia
Description: as §1

[11] = system: pooled sera of uninfected people, Mexico
Description: as §1

[12] = system: pooled sera of uninfected people, USA
Description: as §1

Sequence | antibody binding signal [1] | antibody binding signal [2] | antibody binding signal [3] | antibody binding signal [4] | antibody binding signal [5] | antibody binding signal [6] | antibody binding signal [7] | antibody binding signal [8] | antibody binding signal [9] | antibody binding signal [10] | antibody binding signal [11] | antibody binding signal [12]
KAATGGTPSPPGASS | 466 | 365 | 217 | 259 | 293 | 161 | 284 | 117 | 385 | 222 | 99.2 | 154
TPPSGKDNKAAAGGA | 362 | 416 | 1140 | 1280 | 20000 | 2450 | 654 | 679 | 169 | 182 | 112 | 529
STPPSGKENKAATGG | 39600 | 3820 | 10200 | 770 | 7560 | 3920 | 3080 | 1070 | 145 | 672 | 146 | 416
TISTPPSGKDKKPAA | 24900 | 827 | 5440 | 227 | 47000 | 721 | 469 | 153 | 150 | 162 | 103 | 118
SGKDKKAAAGEAPSP | 481 | 194 | 1070 | 1120 | 835 | 7730 | 159 | 75.8 | 98.4 | 169 | 84.3 | 90.4
TPPSGKDNKPAAGGT | 7750 | 7250 | 21300 | 437 | 38500 | 12500 | 420 | 1220 | 565 | 175 | 254 | 196
PSGKDNKTATGGTPS | 2470 | 580 | 3630 | 5570 | 4900 | 3890 | 267 | 139 | 121 | 152 | 100 | 125
PPSGKENKPAAGGAP | 19000 | 6380 | 6270 | 2290 | 4480 | 10700 | 5300 | 2580 | 164 | 499 | 218 | 682
KDKKTATGETPSQSG | 342 | 279 | 832 | 317 | 309 | 4520 | 163 | 106 | 113 | 74.8 | 79.2 | 112
KKPATGGTPSQSGAS | 383 | 321 | 258 | 396 | 335 | 181 | 339 | 254 | 340 | 136 | 238 | 312
KTAAGETPSPPGASS | 289 | 279 | 524 | 196 | 478 | 965 | 207 | 282 | 208 | 150 | 243 | 370
SGKDNKTATGEAPSQ | 12000 | 20400 | 21800 | 2040 | 381 | 21000 | 334 | 260 | 187 | 386 | 90.8 | 162
KENKPAAGGAPSPPG | 183 | 244 | 2530 | 945 | 368 | 916 | 249 | 234 | 139 | 127 | 126 | 160
GTEKKAAAGETPSPP | 564 | 236 | 1090 | 591 | 784 | 2700 | 145 | 692 | 159 | 176 | 168 | 386
PSGTDNKPAAGGAPS | 30200 | 8520 | 44800 | 4570 | 1050 | 7530 | 278 | 761 | 1260 | 441 | 603 | 296
PPSGKDNKAAAGGAP | 1040 | 295 | 2030 | 1310 | 3430 | 2590 | 409 | 619 | 163 | 302 | 113 | 227
TPPSGTDNKTATGEA | 22100 | 26800 | 40200 | 380 | 4420 | 8700 | 414 | 405 | 405 | 175 | 117 | 124
GKDNKAAAGETPSPP | 2110 | 337 | 5870 | 4720 | 5990 | 2860 | 221 | 449 | 98 | 153 | 135 | 262
TENKAAAGETPSPSG | 35800 | 363 | 6900 | 272 | 255 | 3120 | 167 | 202 | 198 | 108 | 300 | 2390
GKEKKAAAGGTPSQP | 1610 | 213 | 275 | 2440 | 2320 | 2770 | 156 | 73.5 | 526 | 93.4 | 169 | 116
DKKPATGGAPSQSGA | 1180 | 589 | 906 | 1650 | 1050 | 1190 | 410 | 860 | 132 | 131 | 126 | 148
PSGTDNKTATGGTPS | 13300 | 9680 | 39300 | 923 | 784 | 1310 | 260 | 755 | 1950 | 340 | 337 | 324
GKENKAAAGETPSQS | 6150 | 683 | 16500 | 11700 | 9570 | 20400 | 388 | 159 | 163 | 113 | 128 | 98
TEKKAAAGGAPSQPG | 662 | 236 | 1120 | 5640 | 663 | 1420 | 175 | 121 | 450 | 150 | 272 | 229
ENKTAAGEAPSQSGA | 385 | 19200 | 12100 | 192 | 248 | 8100 | 104 | 155 | 231 | 144 | 104 | 136

Sequence | antibody binding signal [1] | antibody binding signal [2] | antibody binding signal [3] | antibody binding signal [4] | antibody binding signal [5] | antibody binding signal [6] | antibody binding signal [7] | antibody binding signal [8] | antibody binding signal [9] | antibody binding signal [10] | antibody binding signal [11] | antibody binding signal [12]
NKPATGETPSQPGAS | 19300 | 30700 | 42500 | 251 | 248 | 24500 | 603 | 2280 | 880 | 528 | 1550 | 1210
ENKTATGEAPSPSGA | 14100 | 34100 | 18700 | 194 | 228 | 24300 | 161 | 121 | 253 | 144 | 109 | 103
PPSGKDNKAAAGETP | 583 | 688 | 2700 | 618 | 3910 | 3550 | 445 | 833 | 163 | 308 | 186 | 220
EKKPATGEAPSQSGA | 46800 | 49200 | 50400 | 369 | 344 | 47800 | 990 | 1050 | 318 | 315 | 332 | 758
NKAAAGEAPSPPGAS | 491 | 1480 | 25500 | 391 | 183 | 10200 | 546 | 1130 | 296 | 598 | 248 | 1180
KTATGETPSPSGASS | 328 | 399 | 1100 | 189 | 2670 | 5240 | 221 | 223 | 183 | 123 | 132 | 544
TDKKPAAGEAPSQPG | 7860 | 17600 | 39100 | 274 | 210 | 16100 | 81.1 | 299 | 186 | 90.4 | 110 | 82.1
PPSGTDKKTAAGGAP | 12100 | 6830 | 17100 | 10800 | 36400 | 1650 | 537 | 439 | 186 | 543 | 1190 | 380
SGTEKKTAAGEAPSP | 423 | 581 | 1340 | 661 | 611 | 7990 | 152 | 531 | 154 | 1800 | 141 | 142
EKKPATGEAPSPSGA | 44400 | 43000 | 46500 | 516 | 268 | 33700 | 827 | 618 | 350 | 270 | 286 | 612
PPSGTEKKPAAGGAP | 40900 | 4460 | 35900 | 4070 | 8100 | 6340 | 1660 | 1090 | 718 | 378 | 334 | 1090
GKEKKPAAGETPSQP | 7880 | 408 | 22600 | 5640 | 6050 | 5810 | 86.5 | 135 | 97.3 | 157 | 81.4 | 317
STPPSGKDKKTAAGG | 21200 | 933 | 1580 | 811 | 41900 | 1420 | 165 | 465 | 122 | 125 | 80.6 | 143
GKENKTATGGTPSQP | 3720 | 531 | 10200 | 9700 | 8240 | 14800 | 617 | 109 | 160 | 121 | 744 | 116
GKDNKTAAGETPSQS | 3080 | 908 | 2110 | 7490 | 5990 | 3720 | 286 | 311 | 130 | 233 | 160 | 154
PSGTDNKAAAGETPS | 18900 | 12100 | 43300 | 559 | 322 | 733 | 156 | 720 | 1370 | 294 | 238 | 157
PPSGKEKKTAAGETP | 1310 | 1040 | 2200 | 1580 | 3400 | 2940 | 366 | 606 | 92.5 | 298 | 153 | 151
PPSGKENKPATGGTP | 8390 | 3960 | 5160 | 954 | 2770 | 11700 | 4530 | 2760 | 255 | 592 | 262 | 616
TPPSGKENKAATGGA | 28700 | 2180 | 2470 | 919 | 4210 | 3170 | 3530 | 1450 | 140 | 582 | 224 | 582
TPPSGTDKKPAAGGT | 38100 | 9710 | 45400 | 14400 | 54800 | 3470 | 803 | 355 | 2140 | 420 | 5340 | 508
EKKTATGGAPSPPGA | 1700 | 358 | 3040 | 3490 | 1110 | 1510 | 377 | 809 | 116 | 175 | 244 | 637
SGTDKKAAAGETPSP | 246 | 1110 | 3410 | 5690 | 594 | 2450 | 178 | 270 | 253 | 330 | 1140 | 632
SGTDKKPAAGGTPSQ | 767 | 4280 | 24900 | 17800 | 3100 | 1430 | 260 | 232 | 2070 | 366 | 3380 | 369
STPPSGTEKKAATGE | 35400 | 28200 | 26700 | 287 | 21000 | 3080 | 995 | 310 | 522 | 321 | 138 | 131
DKKAAAGETPSPSGA | 1510 | 252 | 811 | 295 | 279 | 3240 | 193 | 211 | 200 | 180 | 153 | 576
